Measurements: the supplement of paper PMC11417369
This is one part of the list.

tested on: PfAP2-HC AP2 domain (GST-tagged); experiment: gcPBM binding intensity (ln(normalized median fluorescence intensity)); higher = stronger DNA binding
How it was run: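 An Agilent 4 × 180k array of primer-extended double-stranded 36-bp intergenic genomic probes, with negative controls, was incubated for 1 h with GST-tagged P. falciparum DNA-binding domains expressed in E. coli. Alexa488 anti-GST antibody detected bound protein, scanned at 488 nm. Binding intensity is the highest Masliner-normalised natural-log median intensity across replicate spots of either probe orientation.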

| Sequence | gcPBM binding intensity (ln) |
| --- | --- |
| ATGTGATAATTTAGGAGTACTGTCATAAGCATTTCT [XGTACX_site3091] | 9.62 |
| TCATAAAAAGGAATCTTTAAGATATTTTATAAGCTC [XGTACX_negctrl_site18] | 9.4 |
| TTTCTTTATTTATAATAATTTTTTATTAAAAATAGA [CACACA_negctrl_site1610] | 9.18 |
| AGTGCATAATATTTATGTACGTATCACATATATTTT [XGTACX_site5166] | 9.64 |
| AATAAATGTCTGTTAATGCACACGATATGTCTATAT [CACACA_site2351] | 9.94 |
| AAAAATAAAATAAAATAAAATAAAAATAAAGAAAAA [CACACA_negctrl_site808] | 9.82 |
| ACAAATAAAAAAATTACACACATATATAATATATAT [CACACA_site1361] | 9.87 |
| AGTAGTCTGGAGAAAAGTACACAGTATCTGGTAACA [XGTACX_site2034] | 9.61 |
| TTAATTCTATACATAAATTATGTTTACATAAAGAAT [GTGCAC_negctrl_site246] | 9.47 |
| ATTTGACACGTATATGCACACACCCGTAAGTGTCCA [CACACA_site8891] | 9.98 |
| TATTAACTCAATAGCGCACACTTTTAATATTTTATA [CACACA_site4973] | 9.89 |
| TATATAACTACAAGAACACACATATAAATATAAATA [CACACA_site7210] | 9.96 |
| GTAATTAAGATATATACACACAAAGGCTATTAAATA [CACACA_site6604] | 9.9 |
| ATATATATATATATATGTACGTAAACAAAAATTTAT [XGTACX_site6780] | 9.98 |
| TATTGATAAAAAATATGTACATATATACATATATAT [XGTACX_site3821] | 9.73 |
| ATGTATCGTAACAAATGTACAAGAGGATGTTTAGAC [XGTACX_site3355] | 10.3 |
| GTATTTATATGATTAACACACATATGTGGATTAATA [CACACA_site1315] | 9.68 |
| GATATATTTTGTTATGTAGATGTTGGTAGGAATTTT [GTGCAC_negctrl_site485] | 9.72 |
| TATTATTTATATGATACACACGTACATATACACATA [CACACA_site9275] | 9.86 |
| CAACAAAAGAAACACACACACACAAACACAAAAAAA [CACACA_site3389] | 10.7 |
| TGTATACCTTAATATACACACATACATATATATATA [CACACA_site8370] | 9.73 |
| GGATATATTATATGTACACACATATATAACGGATAT [CACACA_site1309] | 9.87 |

| Sequence | gcPBM binding intensity (ln) |
| --- | --- |
| ATGTAATAAATACTACGTACATATATATGTGTTAAT [XGTACX_site3265] | 9.87 |
| ATATACATATTTTTGACACACATTAGGAAAATATAT [CACACA_site4123] | 9.71 |
| ATATATAAATATAGCATACACACAAAAAAATAAAAT [CACACA_site2332] | 10.3 |
| AAATATATATATATTACACACTATATATTTATTTAT [CACACA_site681] | 9.84 |
| TTCATTAAAACGAATACACACATAAATATATAAAAG [CACACA_site4824] | 9.82 |
| ATATACTTATATATTGCACACATCTAATATTTTGAA [CACACA_site3165] | 9.86 |
| TATAATATGTTTGATGGTACACGTAAACACCTTGCA [XGTACX_site1643] | 9.61 |
| ATAACTAAATTATATTGTACAAAATAATTATATATT [XGTACX_site1188] | 9.6 |
| CATATCAAAAAAAAATGTACACGTATATACAATACA [XGTACX_site2660] | 9.66 |
| TTTTAAAATAAAAAAATAAAAAAAGGGGAAAAAAAA [CACACA_negctrl_site847] | 9.55 |
| GTATTTTTTTTCTTTTGTACATATATATAAAGAATA [XGTACX_site4569] | 9.35 |
| TATTATATATATAAATGTACATATTATTTTTCTTTT [XGTACX_site8670] | 9.67 |
| AAGAATTTTCGATTTGCACACATTTGTAAAATAAAA [CACACA_site2354] | 9.58 |
| TTTAATCAACAAAATCTACACACTAATATGAAATAT [CACACA_site9250] | 9.65 |
| ATACACGTTTTACAATGTACAGAAAGTATACATAAT [XGTACX_site4585] | 9.74 |
| TGTTTCTAAGAATTTACACACAAAATATTTCTACAT [CACACA_site7846] | 9.9 |
| TAATACTTAATGAACACATGCACATATACATAGTAT [TGCATGCA_site496] | 9.74 |
| TTAAAAATTAAAAGTAGTACATATAATATAAACATT [XGTACX_site424] | 9.68 |
| AAAAAAAAAAATTGCACACAAAAAAAAAAAAAAAAA [CACACA_site2073] | 9.32 |
| AATTATACTCACGTTACACACACACTAGATATATAT [CACACA_site6133] | 10.7 |
| TTTTTTTTTTTTTTTTGTACATATATATAAAAAATA [XGTACX_site2772] | 8.95 |
| TAATATTACATTTATTGTACTTTGTTTTTATTTTAT [XGTACX_site1605] | 10.1 |
